Laboratory results taken from the supplement of paper PMC3724861.
The list shows a part of the results.

tested on: T1, Caupolican (Caup) homeodomain DNA-binding domain; assay: PBM E-score (8-mer, recovered from the published 9-mer minima) (E-score (dimensionless, -0.5 to 0.5)); Drosophila protein; higher = stronger relative binding preference, active = 0.31 or more
T1 sequence: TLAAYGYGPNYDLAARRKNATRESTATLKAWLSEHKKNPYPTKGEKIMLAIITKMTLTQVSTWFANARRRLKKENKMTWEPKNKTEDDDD
Procedure, shortened: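 Caup's homeodomain DNA-binding domain (residues 214-303) was produced by in vitro transcription and translation and applied at 100 nM to custom-designed protein binding microarrays. Each value is an enrichment score giving relative binding preference for a short DNA word; higher means stronger. Published 9-mer scores were the minimum of their two constituent 8-mer scores, and the 8-mer values were recovered from those minima. A cutoff of 0.31 marks candidate binding sequences.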

Sequence | PBM E-score
CCTCTTGC | inactive: -0.15
GAACGCCA | inactive: -0.0726
ACCCGGTA | ≥ -0.0214
TGCTTGAA | inactive: 0.0948
ACTGACTC | inactive: -0.0277
GATCCATA | inactive: 0.0181
CAGCTGAG | inactive: -0.135
ACAGCAGC | inactive: 0.0234
CACTCCAG | inactive: -0.0909
AACTTGAT | inactive: 0.12
AGTAGTAT | inactive: 0.21
GGACGTAC | inactive: 0.0119
CTATACCA | inactive: 0.0824
CGAGTCAG | inactive: -0.135
AGTGAGAC | inactive: -0.0174
TCATGGGA | inactive: 0.0206
CTAGGCGC | inactive: -0.183
GAAGTAAA | inactive: 0.1
AATGCCTA | inactive: -0.0311
CGACGGCG | inactive: -0.248
CGCCAATA | inactive: -0.00227
ACTTACCT | inactive: 0.0223
TGCAGACA | ≥ 0.116
CTTTCAGA | inactive: -0.00514
AAGGCTGC | inactive: -0.174

Sequence | PBM E-score
GTCCAAAA | inactive: 0.0967
AATCGTGC | inactive: 0.105
CAACGAGC | inactive: 0.0301
AACGACAT | active: 0.358
AAAAAGTC | inactive: 0.0371
CTGAACCA | inactive: 0.0748
TGAATCCA | inactive: 0.0558
CTAGTCGA | inactive: 0.0588
GACCATGA | inactive: 0.00617
CCTGCACC | inactive: -0.208
GAAGTATA | inactive: 0.0466
GAGCATGA | inactive: 0.0786
GCGTTCTA | inactive: 0.00468
AAAGATGG | inactive: 0.00926
CATTATCC | inactive: 0.0994
CACGGTAC | inactive: 0.1
CCAGAACA | inactive: 0.218
AAAACTAG | inactive: 0.0928
GCAAAGCC | inactive: -0.295
ATCGTTTC | inactive: 0.057
GAGGAGCA | inactive: -0.177
ACTAAGTG | inactive: 0.0303
TCTTGACA | inactive: 0.202
CGGTCTAA | inactive: -0.0391
CGGGCGTA | inactive: -0.248

Sequence | PBM E-score
CAGCACCA | inactive: -0.00464
TAGGCTCA | inactive: -0.0966
CGGAGCGC | inactive: -0.256
GTTCTGAA | inactive: 0.167
ATTGGTGC | inactive: -0.0296
GCGGCGCA | inactive: -0.136
CTATACAA | inactive: 0.249
TAATAATA | inactive: 0.254
CGATGTTC | inactive: 0.249
GGTCCGGA | inactive: -0.114
GGCAGCAC | inactive: -0.168
CTTGGAAC | inactive: 0.0312
CACAACTG | inactive: 0.124
AAATAGCC | inactive: -0.0559
CAGATCCG | inactive: -0.0762
GGCTAGGA | inactive: -0.114
GTTCGGAA | inactive: -0.00684
ACGGATGA | inactive: 0.0197
TCAGCACA | ≥ 0.107
ATCCAGAT | inactive: -0.0852
ACGTTAGT | inactive: 0.0169
CCCCTTCA | inactive: -0.232
CTCCATGC | inactive: -0.107
AATCCGCC | inactive: -0.182
AAATGCTT | inactive: 0.0672

Sequence | PBM E-score
CCGATCGG | inactive: -0.148
ACCTTCGT | inactive: -0.0522
CTCTTTCA | inactive: -0.0825
CGTCAGAA | inactive: 0.0382
GAGTCGGC | inactive: -0.139
AGGGTGTG | inactive: -0.0575
GGCAGACC | inactive: -0.232
GCGTACCA | inactive: -0.00399
AGTGGCGC | inactive: -0.182
ACCAGGAA | inactive: 0.0235
ACACCCCT | inactive: 0.0587
ACTAGCCT | ≥ 0.0954
AACCTGGT | ≥ 0.104
CCCGCCCA | inactive: -0.17
ACCCCGCC | inactive: -0.193
ACCAACAG | inactive: -0.0273
CTTTGTCC | inactive: 0.0364
CAGCTCAC | inactive: -0.0606
CAATCTGA | inactive: 0.107
AATTACGT | inactive: 0.122
ATGTGATA | ≥ 0.286
AATTTGGC | inactive: -0.122
ACGAGCGC | inactive: -0.102
GAACGCCC | inactive: -0.197
ACTGGAAG | inactive: -0.124

Sequence | PBM E-score
GCCTAAGC | inactive: -0.175
ATCCCCCA | inactive: -0.217
AAATCTTG | inactive: 0.169
TAGGACTA | inactive: 0.0296
CAGCTCTC | inactive: -0.131
GCATTACC | inactive: -0.0431
CAGCAGTA | inactive: 0.00946
GACCGTAA | inactive: -0.0601
AGACGGAC | inactive: -0.0361
AAGACGGG | inactive: -0.184
GGCCGGAA | inactive: -0.282
TAGCATAA | inactive: 0.0882
CACAATAG | inactive: 0.119
CAAACGTG | inactive: 0.121
AACGTCGA | inactive: 0.0619
GGCGCAGA | inactive: -0.143
CTACAACC | inactive: 0.281
ACATATGG | inactive: 0.223
CTCGCTTC | inactive: -0.161
ACGGTAGC | inactive: -0.044
ACAATAGA | inactive: 0.134
GCCAGTAA | inactive: -0.116
ACATGTTC | active: 0.455
ATTGGGGG | inactive: -0.246
AGCCGTAG | inactive: -0.0734

Sequence | PBM E-score
AAGTGCGG | inactive: -0.101
CCATTGTC | inactive: 0.0627
AAACATAG | inactive: 0.267
ACTTCTAG | inactive: -0.0699
GGCCGGCA | inactive: -0.241
TGACCACA | inactive: 0.0414
CGATAGAG | inactive: -0.0723
CGCACTCA | inactive: -0.095
ATTCCAAA | inactive: 0.0779
GATGCCAA | inactive: -0.0306
CCACGACG | inactive: -0.142
CGTGCTCA | ≥ 0.103
TAATAGGA | inactive: 0.0689
GCGTACGA | inactive: -0.0497
ACTTTATG | inactive: 0.0771
CGTCTAGA | inactive: -0.119
CTCCCACC | inactive: -0.196
GAGGCCGA | inactive: -0.147
CGTCAGGC | inactive: -0.146
CCTATCGA | inactive: 0.0985
AATTGTGC | inactive: 0.0366
CGGCCGCC | inactive: -0.254
ATATCTAG | inactive: 0.0351
CTTCGTTA | inactive: -0.0637
CAGGTTAG | inactive: -0.0352

Sequence | PBM E-score
ATAAGTAT | inactive: 0.0762
AGACTCAC | inactive: 0.0308
CCGCTCCC | inactive: -0.313
ATTGAGGG | inactive: -0.114
TCTTTAAA | inactive: -0.0311
AGGGTTTA | ≥ 0.0817
GTAGCGAA | inactive: 0.0736
CAATTATC | inactive: 0.129
CAGCGCCA | inactive: -0.191
CGACACCA | inactive: 0.0948
CGCGTAAG | inactive: -0.0298
ATTCGCCG | inactive: -0.0854
GAGACTGC | inactive: -0.163
GCGCTTCA | inactive: -0.139
AAGACCAA | inactive: 0.0212
AAGGGGCG | inactive: -0.257
CCACGTAG | inactive: -0.211
CGTTAAAG | inactive: -0.033
CGTGCTTC | inactive: -0.01
TCGTGTCA | active: 0.328
ACTGATTA | inactive: 0.183
CCCTGCGC | inactive: -0.299
ACGTTAAA | ≥ 0.117
AAACTATG | inactive: 0.0743
AGCCCAGA | ≥ -0.11

Sequence | PBM E-score
CTAAAAAC | inactive: -0.00686
CCTAGCCG | inactive: -0.217
GCGCGTCC | inactive: -0.197
AACTTATC | inactive: 0.0353
ATCACCCC | inactive: -0.0463
GAGGTTCA | inactive: -0.0903
CGCACCTA | inactive: -0.108
TACCCGAA | inactive: 0.0484
ACATATCG | inactive: 0.238
CGTACTTC | inactive: -0.0253
ATAGGCAG | inactive: 0.0479
ACAACAGA | inactive: 0.255
GCGGCTCA | inactive: -0.263
ATGTGGTG | inactive: 0.118
CGTTATAG | inactive: 0.0727
CAGCGGCC | inactive: -0.246
AAACCGAT | inactive: -0.04
AACCCCCA | inactive: -0.194
CATTTCTC | inactive: 0.0178
GCACTGCC | inactive: -0.167
TGAGAAAA | inactive: -0.00743
AGAGTGAA | inactive: 0.0458
GGCTAGAA | inactive: -0.139
ACGCCCCT | ≥ -0.11
AGAGGCGC | inactive: -0.141

Sequence | PBM E-score
ACGACCAC | inactive: 0.0805
ACCAAGAG | inactive: -0.0676
GGAATACA | inactive: 0.243
ACGTTCCT | ≥ 0.0171
CTAACAAG | inactive: 0.287
AGCGGATA | inactive: -0.153
ATCGGGGA | ≥ -0.0407
CGGCTCTC | inactive: -0.209
GAGCTCAA | inactive: -0.094
CGGCGCCC | inactive: -0.213
CTTTGGGA | inactive: -0.0957
AGGATCCT | ≥ 0.0286
CTGTACAG | inactive: 0.164
ATGCTTGC | inactive: -0.0802
ACATTACG | inactive: 0.136
CCCCACAA | inactive: -0.128
CGCCTCTA | inactive: -0.07
CCGACAGA | inactive: 0.0333
GCAACAAA | inactive: 0.15
CGAAGCTA | inactive: -0.0431
AGGTAACC | inactive: -0.0119
CGGATTCC | inactive: -0.138
GCTGGAAC | inactive: -0.0888
GCACGTGC | inactive: 0.0135
ACACCAAA | inactive: 0.177
